Holding throughout (format): in vivo
In one experiment the test system is wheat powdery mildew. Kind of experiment: Controlling test on wheat powdery mildew. The following applies: 100 ppm, wheat in internode elongation period, flag leaves two months after treatment. From the text:
In the untreated plot, the areal rate of lesion was 15%. […] [formula]

Experiment [1] relates to powdery mildew (Erysiphe graminis). Briefly: Preventive effect on barley powdery mildew by spraying. The note with it: 20 ppm, sprayed on barley (Kanto No. 6), inoculated 7 days after treatment. Here is the method:
Seven days after the treatment, the plants were inoculated with spores of powdery mildew (Erysiphe graminis) by the method of powdering. Seven days after the inoculation, the number of lesions was counted, from which controlling degree was calculated according to Test Example 1. In the untreated plot, the number of lesions was 17.7 per leaf.

Experiment [2] has the same test system. Briefly: Controlling effect on wheat powdery mildew by seed coating treatment. The note with it: 1 % active ingredient per dry seed weight, wheat (Chihoku), inoculated one month after seeding. Here is the method:
A small quantity of water was added thereto and thoroughly mixed together to carry out a seed coating treatment. After the treatment, the seeds were air-dried overnight, sown in pots, and cultivated in a greenhouse. One month after the seeding, the plants were inoculated with spores of powdery mildew (Erysiphe graminis) by the method of powdering. Seven days after the inoculation, the number of lesions was counted, from which controlling degree was calculated according to Test Example 1. In the untreated plot, the number of lesions per leaf was 25.

Experiment [3] concerns downy mildew (Pseudoperonospora cubensis). Kind of experiment: Controlling effect on cucumber downy mildew by soil mixing treatment. The note with it: 0.1 g active ingredient per pot, cucumber (Suyo), inoculated after 2 weeks. Here is the method: Then, cucumber (variety: Suyo) seedlings of cotyledon-developing period were transplanted into the pots. […] Seven days after the inoculation, the plants were investigated and evaluated according to Test Example 3, from which controlling degree was determined. In the untreated plot, the disease occurrence index was 6.5.

The test system of experiment [4] is rice bakanae disease fungi (Gibberella fujikuroi). Briefly: Controlling effect on rice bakanae disease by seed coating treatment. The note with it: 0.2 wt. % of active ingredient per dry unhulled rice, diseased seedling rate. Here is the method:
After the treatment, the unhulled rice was air-dried overnight, immersed in water at 15° C. for one week, and then kept at 30° C. to promote germination, after which the unhulled rice seeds were sown in a seedling raising box, germination thereof was hastened at 30C for 3 days, and the plants were cultivated in a greenhouse for about one month. Then, the diseased seedling rate was investigated, from which the controlling degree was calculated according to the following equation. In the untreated plot, the diseased seedling rate was 78%.

Turning to `CO/C=C(/C(=O)OC)c1ccccc1Oc1cc(Oc2ccccc2C#N)ncn1` [Azoxystrobin, Methyl (E)-2-{2-[6-(2-cyanophenoxy)pyrimidin-4-yloxy]phenyl}-3-methoxyacrylate], in the experiment with wheat powdery mildew, the “Controlling degree (%)” value amounted to 40%. The “Actual controlling degree (%)” value in experiment [1] turned out to be 60%.
As to `CCCCNC(=O)n1c(NC(=O)OC)nc2ccccc21` [Benomyl, Methyl 1-(butylcarbamoyl)-2-benzimidazole-carbamate], the results for the “Controlling degree (%)” value in experiment [2] and in experiment [3] were 0% and 2%, respectively.
With `CCn1cc(C(=O)O)c(=O)c2cc3c(cc21)OCO3` [Oxolinic acid, 5-Ethyl-5,8-dihydro-8-oxo[1,3]dioxolo[4,5-g]-quinoline-7-carboxylic acid], the “Controlling degree (%)” value in experiment [4] amounted to 0%.
With `CCCC1COC(Cn2cncn2)(c2ccc(Cl)cc2Cl)O1` (stereo not drawn) [Propiconazole, 1-[2-(2,4-dichlorophenyl)-4-propyl-1,3-dioxolan-2-ylmethyl]-1H-1,2,4-triazole], in experiment [1], the “Actual controlling degree (%)” value was found to be 63%.
